# Measurements published in the supplement of paper PMC10338343.
# ± gives the standard deviation. This is a selection; strong and weak results do not stand in their true shares.
# Tested on: MIWI (PIWIL1) piRISC loaded with L1MC piRNA (30 nt)
# Test: pre-steady-state target cleavage rate (min^-1); MIWI and MILI are mouse PIWI proteins and EfPiwi is from a freshwater sponge; tags in brackets are library labels; higher = faster piRNA-guided slicing of the target
# Conditions: guide: L1MC piRNA 5'p-UAACUAAAUACUAUGCAAGCUGUAGGUCCU; auxiliary factor: none (no GTSF1)
# Method in brief: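 In HEPES–potassium acetate buffer at 33 °C, […] transcribed, DNA-blocked target RNA library was mixed with 1 nM active affinity-purified piRISC carrying one synthetic guide, with or without 500 nM GTSF1 partner protein, for 0–8 or 0–960 min. Uncleaved targets were sequenced and normalised to depth and to weakly complementary targets; three trials were pooled and k3 was capped at 0.0001 min^-1. The pre-steady-state cleavage rate followed from a burst-and-steady-state fit.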
# 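Further: 1 nM active piRISC with 0.1 nM target library at 33 °C single turnover.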
row,Sequence,pre-steady-state target cleavage rate
1,AGGACCUACAGCUUGCAAAGUAUUUUGUUA,0.0148 ± 0.0028
2,UGGACGUACAGCUUGCAUAGAAUUUAGUUA,0.0267 ± 0.0072
3,UCCUGGAUGAGCAUGCAUAGUAUUAAGUUA,0.00778 ± 0.003
4,UCCACCUACAGGUAGCAUAGUAUUUAGUUA,0.00594 ± 0.0017
5,UCCUGGUACAGCUUGCAUAGUAUUUAGAUA,0.0181 ± 0.0043
6,AGGACCUACAGCUUGCAAGUAUUUAGUUA,0.0101 ± 0.0035
7,UCCUGGAUGAGCUUGCAUAGUAUUAUAGUUA,0.0138 ± 0.004
8,UCCUGCUAGAGCUUGCAUAGUAUUUAGUAA,0.015 ± 0.0036
9,UCCACCACAGCUUGCAUAGUAUUUAGUUA,0.0505 ± 0.0088
10,UCCUCCUACAGCUUGCAUACUAUUUACAAA,0.00271 ± 0.0026
11,AGGAUCUACAGCUUGCAUAGUAUUUAGUUA,0.105 ± 0.017
12,AGGACCUACAGCUUGGAUAGUAUAUAGUUA,0.0336 ± 0.0076
13,UCGACCUAGAGCUUGCAUAGAAUUUAGUUA,0.0143 ± 0.0039
14,UCCUGGUACAGCUUGCAUAGUAUUUAGUCA,0.0208 ± 0.0034
15,UCGACCUACAGCUUGCAUAGUUUUUUGUUA,0.0209 ± 0.005
16,UCCUGGAUGUCCUUGCAUAGUUUUUAGUUA,0.00445 ± 0.0021
17,UCCUGGAACAGCUUGCAUAGUAUGUAGUUA,0.0217 ± 0.004
18,UCCUGGAUGUCCUUGCAUACUAUUUAGUUA,0.00616 ± 0.0016
19,UCCUGGAUGUGCUUGCUUACUAUUUAGUUA,0.00374 ± 0.0017
20,UCCACCUACAGCUUGCAUAGAAUAUAGUUA,0.0055 ± 0.0021
21,AGGACCAAGAGCUUGCAUAGUAUUUAGUUA,0.0743 ± 0.015
22,UGGUCCUACAGCUUCCAUAGUAUUUAGUUA,0.00418 ± 0.0022
23,UCCUGGAUGAGCUUGCUUAGUAUUUAGUUA,0.0307 ± 0.0075
24,UCCUCCUACAGCUAGGAUAGUAUUUAGUUA,0.00664 ± 0.0017
